Results reported in a collection of fitness landscapes (doi:10.1016/j.celrep.2020.107928).
The full ranking holds about 81,000 sequences; the median of “one-hybrid fitness for binding NBS DNA” is about -0.1, and the highest 2% start at about 0.36. The list shows a part of the results.

B1: Caulobacter ParB omega fusion; a variant is named by its letters at X, in order, B8GW30 (parent)
chain: MESVVVGEPGMSEGRRGLGRGLSALLGEVDAAPAQAPGEQLGGSREAPIEILQRNPDQPRRTFREEDLEDLSNSIREKGVLQPILVRPSPDTAGEYQIVAGERAWRAAQRAGLKTVPIMVRELDDLAVLEIGIIENVQRADLNVLEEALSYKVLMEKFERTQENIAQTIGKSXSHVANXMRLLXLPDEVQSYLVSGELTAXHARAIAAAADPVALAKQIIEGGLSVRETEALARKAPNLSAGKSKGGRPPRVKDTDTQALESDLSSVLGLDVSIDHRGSTGTLTITYATLEQLDDLCNRLTRGI

Variants of: B1
Experiment: one-hybrid fitness for binding NBS DNA (the Noc-binding site; scaled: cognate 1, non-cognate 0); higher = stronger binding
Conditions: with NBS DNA site
Method in brief: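 Caulobacter ParB libraries with four specificity codons randomised were screened by bacterial one-hybrid selection in the E. coli USO strain, using a HIS3 reporter whose site lies 19 bp from the promoter. Selection ran for 48 hours at 37°C on M9 lacking histidine, with 0.1 mM IPTG and 5 mM 3-AT. Plasmids were Illumina-sequenced before and after selection, three replicate libraries were pooled, and variants with under 10 reads were dropped. Fitness is the log change in each variant's read ratio to wild type, rescaled against the cognate and non-cognate sites.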

| Variant | one-hybrid fitness for binding NBS DNA |
| --- | --- |
| AKRT | ≤ 0.2 |
| AHLF | ≤ 0.2 |
| INAS | ≤ 0.2 |
| QKVC | ≤ 0.2 |
| LHQW | ≤ 0.2 |
| TTTF | ≤ 0.2 |
| GPPQ | ≤ 0.2 |
| RDTM | ≤ 0.2 |
| HMPT | ≤ 0.2 |
| NDQS | ≤ 0.2 |
| QMDY | ≤ 0.2 |
| SLCC | ≤ 0.2 |
| TRDT | ≤ 0.2 |
| KRVK | ≤ 0.2 |
| LKMH | ≤ 0.2 |
| YHKT | ≤ 0.2 |
| AKKP | ≤ 0.2 |
| GKVR | ≤ 0.2 |
| PDGT | ≤ 0.2 |
| LLMR | ≤ 0.2 |
| YEHY | ≤ 0.2 |
| KTQS | ≤ 0.2 |
| VSNC | ≤ 0.2 |
| QALH | ≤ 0.2 |
| LRLL | ≤ 0.2 |
| DYKG | ≤ 0.2 |

| Variant | one-hybrid fitness for binding NBS DNA |
| --- | --- |
| LLAY | ≤ 0.2 |
| IIQR | ≤ 0.2 |
| HCFY | ≤ 0.2 |
| SAST | ≤ 0.2 |
| TLFQ | ≤ 0.2 |
| NQPV | ≤ 0.2 |
| SWNS | ≤ 0.2 |
| HPST | ≤ 0.2 |
| GITC | ≤ 0.2 |
| TQAL | ≤ 0.2 |
| NINC | ≤ 0.2 |
| YIGS | ≤ 0.2 |
| LAMR | ≤ 0.2 |
| LFPC | ≤ 0.2 |
| AVTA | ≤ 0.2 |
| IMTG | ≤ 0.2 |
| DVVA | ≤ 0.2 |
| AGHY | ≤ 0.2 |
| YSLT | ≤ 0.2 |
| KCIW | ≤ 0.2 |
| DKAW | ≤ 0.2 |
| WCYE | ≤ 0.2 |
| ITVS | ≤ 0.2 |
| VCGR | ≤ 0.2 |
| NMMS | ≤ 0.2 |
| EYSL | ≤ 0.2 |

| Variant | one-hybrid fitness for binding NBS DNA |
| --- | --- |
| RSFV | ≤ 0.2 |
| HRNY | ≤ 0.2 |
| RMHS | 0.486 |
| GPAR | ≤ 0.2 |
| TPEL | ≤ 0.2 |
| WCCG | ≤ 0.2 |
| RNLF | ≤ 0.2 |
| TRDD | ≤ 0.2 |
| MTVV | ≤ 0.2 |
| HVAC | ≤ 0.2 |
| PFMT | ≤ 0.2 |
| RWTP | ≤ 0.2 |
| GTMS | ≤ 0.2 |
| KDCR | ≤ 0.2 |
| NTTW | ≤ 0.2 |
| SMRG | ≤ 0.2 |
| GSPI | ≤ 0.2 |
| FVPR | ≤ 0.2 |
| ARYK | ≤ 0.2 |
| GHIT | ≤ 0.2 |
| EAPM | ≤ 0.2 |
| ILLG | ≤ 0.2 |
| VMNF | ≤ 0.2 |
| CART | ≤ 0.2 |
| QMIK | ≤ 0.2 |
| LYRI | ≤ 0.2 |

| Variant | one-hybrid fitness for binding NBS DNA |
| --- | --- |
| FNGC | ≤ 0.2 |
| WSTL | ≤ 0.2 |
| AGAG | ≤ 0.2 |
| DSIV | ≤ 0.2 |
| PKSS | ≤ 0.2 |
| PWYF | ≤ 0.2 |
| MYSR | ≤ 0.2 |
| SILT | ≤ 0.2 |
| RCQI | ≤ 0.2 |
| SHRL | ≤ 0.2 |
| ASKT | ≤ 0.2 |
| NWNL | ≤ 0.2 |
| LCMR | ≤ 0.2 |
| WIPI | ≤ 0.2 |
| DGRR | ≤ 0.2 |
| AHMW | ≤ 0.2 |
| NQER | ≤ 0.2 |
| EVYV | ≤ 0.2 |
| PVPC | ≤ 0.2 |
| HYTC | ≤ 0.2 |
| PTTG | ≤ 0.2 |
| YMRS | ≤ 0.2 |
| TMWC | ≤ 0.2 |
| AWVR | ≤ 0.2 |
| SHNK | ≤ 0.2 |
| TTLP | ≤ 0.2 |

| Variant | one-hybrid fitness for binding NBS DNA |
| --- | --- |
| QRKS | 0.778 |
| CAKT | ≤ 0.2 |
| HCPL | ≤ 0.2 |
| KYYF | ≤ 0.2 |
| QTEQ | ≤ 0.2 |
| IYVR | ≤ 0.2 |
| VNHT | ≤ 0.2 |
| FRLL | ≤ 0.2 |
| WASG | ≤ 0.2 |
| RWRY | ≤ 0.2 |
| ATPM | ≤ 0.2 |
| MKVC | ≤ 0.2 |
| WLVS | ≤ 0.2 |
| IINP | ≤ 0.2 |
| CMRG | ≤ 0.2 |
| PYFF | ≤ 0.2 |
| HDNT | ≤ 0.2 |
| RGIL | ≤ 0.2 |
| HSLF | ≤ 0.2 |
| RYWQ | ≤ 0.2 |
| VTST | ≤ 0.2 |
| MTEL | ≤ 0.2 |
| CMNR | ≤ 0.2 |
| QNVF | ≤ 0.2 |
| YFDC | ≤ 0.2 |
| MTCC | ≤ 0.2 |

| Variant | one-hybrid fitness for binding NBS DNA |
| --- | --- |
| CRIN | ≤ 0.2 |
| LWTV | ≤ 0.2 |
| NQMP | ≤ 0.2 |
| SVNS | ≤ 0.2 |
| MMTR | ≤ 0.2 |
| PGMY | ≤ 0.2 |
| LLNS | ≤ 0.2 |
| MFNG | ≤ 0.2 |
| HKVG | ≤ 0.2 |
| MPVM | ≤ 0.2 |
| KFCR | ≤ 0.2 |
| KRGL | ≤ 0.2 |
| EKSN | ≤ 0.2 |
| WNTT | ≤ 0.2 |
| RVFI | ≤ 0.2 |
| KYTV | ≤ 0.2 |
| TTHP | ≤ 0.2 |
| MCGA | ≤ 0.2 |
| GTRF | ≤ 0.2 |
| QLNL | ≤ 0.2 |
| STVP | ≤ 0.2 |
| NLMV | ≤ 0.2 |
| RLNY | ≤ 0.2 |
